Laboratory results taken from patent publication US9931327B2, “Derivatives of 1-phenyl-2-pyridinyl alkyl alcohols as phosphodiesterase inhibitors” (Chiesi Farmaceutici S.p.A., priority 2011, dated 2018).
Some results were stated once for a whole list of compounds, not compound by compound.

tested on: T1, PDE4; assay: In vitro determination of PDE4 inhibitory activity in the cell free assay (cAMP disappearance, U937 cell lysate supernatant); assay type: biochemical; settings: U937 human monocytic cell lysate supernatant, compounds of the invention, read-out: PDE4 inhibition (IC50, 50% inhibition of cAMP disappearance)
T1 construct: PDE4 activity was determined in U937 human monocytic supernatants cells lysate

Question: Which IC50 does the source give for O=C(O[C@@H](Cc1c(Cl)c[n+]([O-])cc1Cl)c1ccc(OC(F)F)c(OCC2CC2)c1)[C@@H]1SCCN1S(=O)(=O)c1cccnc1 [Compound 88, 3,5-dichloro-4-((S)-2-(3-(cyclopropylmethoxy)-4-(difluoromethoxy)phenyl)-2-((S)-3-(pyridin-3-ylsulfonyl)thiazolidine-2-carbonyloxy)ethyl)pyridine 1-oxide] here?
Answer: Its IC50 is < 0.1 nM.

Question: Which IC50 does the source give for O=C(O[C@@H](Cc1c(Cl)c[n+]([O-])cc1Cl)c1ccc(OC(F)F)c(OCC2CC2)c1)[C@@H]1SCCN1S(=O)(=O)c1ccccc1 [Compound 89, 3,5-dichloro-4-((S)-2-(3-(cyclopropylmethoxy)-4-(difluoromethoxy)phenyl)-2-((S)-3-(phenylsulfonyl)thiazolidine-2-carbonyloxy)ethyl)pyridine 1-oxide] here?
Answer: The IC50 was 0.1 to 1 nM.

Question: How did the IC50 turn out when Cn1ccnc1S(=O)(=O)N1CCS[C@H]1C(=O)O[C@@H](Cc1c(Cl)c[n+]([O-])cc1Cl)c1ccc(OC(F)F)c(OCC2CC2)c1 [Compound 90, 3,5-dichloro-4-((S)-2-(3-(cyclopropylmethoxy)-4-(difluoromethoxy)phenyl)-2-((S)-3-(1-methyl-1H-imidazol-2-ylsulfonyl)thiazolidine-2-carbonyloxy)ethyl)pyridine 1-oxide] was run?
Answer: Its IC50 is < 0.1 nM.

Question: With NS(=O)(=O)c1cccc(S(=O)(=O)N2CCS[C@H]2C(=O)O[C@@H](Cc2c(Cl)c[n+]([O-])cc2Cl)c2ccc(OC(F)F)c(OCC3CC3)c2)c1 [Compound 91, 3,5-dichloro-4-((S)-2-(3-(cyclopropylmethoxy)-4-(difluoromethoxy)phenyl)-2-((S)-3-(3-sulfamoylphenylsulfonyl)thiazolidine-2-carbonyloxy)ethyl)pyridine 1-oxide] as the molecule, how does the IC50 read?
Answer: Its IC50 is < 0.1 nM.

Question: COc1ccc(S(=O)(=O)N2CCS[C@H]2C(=O)O[C@@H](Cc2c(Cl)c[n+]([O-])cc2Cl)c2ccc(OC(F)F)c(OCC3CC3)c2)cc1OC [Compound 93, 3,5-dichloro-4-((S)-2-(3-(cyclopropylmethoxy)-4-(difluoromethoxy)phenyl)-2-((S)-3-(3,4-dimethoxyphenylsulfonyl)thiazolidine-2-carbonyloxy)ethyl)pyridine 1-oxide] was tested. Which IC50 did it give?
Answer: The IC50 was < 0.1 nM.

Question: For CNS(=O)(=O)c1ccc(S(=O)(=O)N2CCS[C@H]2C(=O)O[C@@H](Cc2c(Cl)c[n+]([O-])cc2Cl)c2ccc(OC(F)F)c(OCC3CC3)c2)cc1 [Compound 94, 3,5-dichloro-4-((S)-2-(3-(cyclopropylmethoxy)-4-(difluoromethoxy)phenyl)-2-((S)-3-(4-(N-methylsulfamoyl)phenylsulfonyl)thiazolidine-2-carbonyloxy)ethyl)pyridine 1-oxide], which IC50 is on record?
Answer: The IC50 was < 0.1 nM.

Question: With CN(C)S(=O)(=O)c1cccc(S(=O)(=O)N2CCS[C@H]2C(=O)O[C@@H](Cc2c(Cl)c[n+]([O-])cc2Cl)c2ccc(OC(F)F)c(OCC3CC3)c2)c1 [Compound 97, 3,5-dichloro-4-((S)-2-(3-(cyclopropylmethoxy)-4-(difluoromethoxy)phenyl)-2-((S)-3-(3-(N,N-dimethylsulfamoyl)phenylsulfonyl)thiazolidine-2-carbonyloxy)ethyl)pyridine 1-oxide] as the molecule, how does the IC50 read?
Answer: The IC50 was < 0.1 nM.

Question: COC(=O)c1ccc(S(=O)(=O)N2CCS[C@H]2C(=O)O[C@@H](Cc2c(Cl)c[n+]([O-])cc2Cl)c2ccc(OC(F)F)c(OCC3CC3)c2)cc1 [Compound 100, 3,5-dichloro-4-((S)-2-(3-(cyclopropylmethoxy)-4-(difluoromethoxy)phenyl)-2-((S)-3-(4-(methoxycarbonyl)phenylsulfonyl)thiazolidine-2-carbonyloxy)ethyl)pyridine 1-oxide] was tested. Which IC50 did it give?
Answer: Its IC50 is < 0.1 nM.

Question: With COC(=O)c1ccccc1S(=O)(=O)N1CCS[C@H]1C(=O)O[C@@H](Cc1c(Cl)c[n+]([O-])cc1Cl)c1ccc(OC(F)F)c(OCC2CC2)c1 [Compound 101, 3,5-dichloro-4-((S)-2-(3-(cyclopropylmethoxy)-4-(difluoromethoxy)phenyl)-2-((S)-3-(2-(methoxycarbonyl)phenylsulfonyl)thiazolidine-2-carbonyloxy)ethyl)pyridine 1-oxide] as the molecule, how does the IC50 read?
Answer: Its IC50 is < 0.1 nM.

Question: CN(C)C(=O)c1cccc(S(=O)(=O)N2CSC[C@@H]2C(=O)O[C@@H](Cc2c(Cl)c[n+]([O-])cc2Cl)c2ccc(OC(F)F)c(OCC3CC3)c2)c1 [Compound 102, 3,5-dichloro-4-((S)-2-(3-(cyclopropylmethoxy)-4-(difluoromethoxy)phenyl)-2-((S)-3-(3-(dimethylcarbamoyl)phenylsulfonyl)thiazolidine-4-carbonyloxy)ethyl)pyridine 1-oxide] was tested. Which IC50 did it give?
Answer: Its IC50 is < 0.1 nM.

Question: For COc1cccc(S(=O)(=O)N2CCS[C@H]2C(=O)O[C@@H](Cc2c(Cl)c[n+]([O-])cc2Cl)c2ccc(OC(F)F)c(OCC3CC3)c2)c1 [Compound 103, 3,5-dichloro-4-((S)-2-(3-(cyclopropylmethoxy)-4-(difluoromethoxy)phenyl)-2-((S)-3-(3-methoxyphenylsulfonyl)thiazolidine-2-carbonyloxy)ethyl)pyridine 1-oxide], which IC50 is on record?
Answer: The IC50 was 0.1 to 1 nM.

Question: For O=C(O[C@@H](Cc1c(Cl)c[n+]([O-])cc1Cl)c1ccc(OC(F)F)c(OCC2CC2)c1)[C@@H]1SCCN1S(=O)(=O)c1cccc(OC(F)(F)F)c1 [Compound 104, 3,5-dichloro-4-((S)-2-(3-(cyclopropylmethoxy)-4-(difluoromethoxy)phenyl)-2-((S)-3-(3-(trifluoromethoxy)phenylsulfonyl)thiazolidine-2-carbonyloxy)ethyl)pyridine 1-oxide], which IC50 is on record?
Answer: The IC50 was 0.1 to 1 nM.

Question: How did the IC50 turn out when O=C(O[C@@H](Cc1c(Cl)c[n+]([O-])cc1Cl)c1ccc(OC(F)F)c(OCC2CC2)c1)[C@@H]1SCCN1S(=O)(=O)c1ccc(N2CCOCC2)nc1 [Compound 105, 3,5-dichloro-4-((S)-2-(3-(cyclopropylmethoxy)-4-(difluoromethoxy)phenyl)-2-((S)-3-(6-morpholinopyridin-3-ylsulfonyl)thiazolidine-2-carbonyloxy)ethyl)pyridine 1-oxide] was run?
Answer: The IC50 was 0.1 to 1 nM.

Question: With COc1cc(C)ccc1S(=O)(=O)N1CCS[C@H]1C(=O)O[C@@H](Cc1c(Cl)c[n+]([O-])cc1Cl)c1ccc(OC(F)F)c(OCC2CC2)c1 [Compound 106, 3,5-dichloro-4-((S)-2-(3-(cyclopropylmethoxy)-4-(difluoromethoxy)phenyl)-2-((S)-3-(2-methoxy-4-methylphenylsulfonyl)thiazolidine-2-carbonyloxy)ethyl)pyridine 1-oxide] as the molecule, how does the IC50 read?
Answer: The IC50 was < 0.1 nM.

Question: Cc1nc(C)c(S(=O)(=O)N2CCS[C@H]2C(=O)O[C@@H](Cc2c(Cl)c[n+]([O-])cc2Cl)c2ccc(OC(F)F)c(OCC3CC3)c2)s1 [Compound 107, 3,5-dichloro-4-((S)-2-(3-(cyclopropylmethoxy)-4-(difluoromethoxy)phenyl)-2-((S)-3-(2,4-dimethylthiazol-5-ylsulfonyl)thiazolidine-2-carbonyloxy)ethyl)pyridine 1-oxide] was tested. Which IC50 did it give?
Answer: Its IC50 is < 0.1 nM.

Question: CN1CCOc2ccc(S(=O)(=O)N3CCS[C@H]3C(=O)O[C@@H](Cc3c(Cl)c[n+]([O-])cc3Cl)c3ccc(OC(F)F)c(OCC4CC4)c3)cc21 [Compound 108, 3,5-dichloro-4-((S)-2-(3-(cyclopropylmethoxy)-4-(difluoromethoxy)phenyl)-2-((S)-3-(4-methyl-3,4-dihydro-2H-benzo[b][1,4]oxazin-6-ylsulfonyl)thiazolidine-2-carbonyloxy)ethyl)pyridine 1-oxide] was tested. Which IC50 did it give?
Answer: The IC50 was 0.1 to 1 nM.
